Experimental data: paper PMC8682993 (Science Advances, 2021)

Molecular target: full-length yeast Hsp90 (Hsp82) (yeast, UniProt P02829 1-709)
Assay: AUC

binding result: binds
B1: Tau isoform D (C264S) (natural protein)
chain: not shown
modifications: IPSL (3-(2-iodoacetamido)-PROXYL) spin label on C233 (PRE experiments)
